# Experimental data from the supplement of paper PMC8728848.
# The list shows a part of the results.
# B1: Mincle (Homo sapiens), Q9ULY5 (protein)
# chain: MNSSKSSETQCTERGCFSSQMFLWTVAGIPILFLSACFITRCVVTFRIFQTCDEKKFQLPENFTELSCYNYGSGSVKNCCPLNWEYFQSSCYFFSTDTISWALSLKNCSAMGAHLVVINSQEEQEFLSYKKPKMREFFIGLSDQVVEGQWQWVDGTPLTKSLSFWDVGEPNNIATLEDCATMRDSSNPRQNWNDVTCFLNYFRICEMVGINPLNKGKSL
# What was measured:
# Test in all cases: glycan array binding signal (z-score within array); higher = stronger binding
# Details in all cases: glycan notation: IUPAC condensed, linker removed
# [1] = molecular target: Fuc(a1-2)[GalNAc(a1-3)]Gal(b1-4)GlcNAc(b1-3)Gal(b1-4)GlcNAc
# Method in brief: (§1)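 The binding signal is a Z-score computed within each array and averaged over linkers. Arrays of the same protein sequence at different concentrations or buffers were also averaged together. Data originate from 3228 arrays in the Consortium for Functional Glycomics database, kept only where the protein sequence was available.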
# [2] = molecular target: Fuc(a1-2)[GalNAc(a1-3)]Gal(b1-4)GlcNAc(b1-3)Gal(b1-4)GlcNAc(b1-3)Gal(b1-4)GlcNAc
# Method in brief: as §1
# [3] = molecular target: Fuc(a1-2)[GalNAc(a1-3)]Gal(b1-4)[Fuc(a1-3)]GlcNAc
# Method in brief: as §1
# [4] = molecular target: Fuc(a1-2)[GalNAc(a1-4)]Gal(b1-4)GlcNAc
# Method in brief: as §1
# [5] = molecular target: Fuc(a1-2)[GalNAc(b1-3)]Gal
# Method in brief: as §1
# Fuc(a1-3)GlcNAc = molecular target: Fuc(a1-3)GlcNAc
# Method in brief: as §1
# [6] = molecular target: Fuc(a1-3)[Gal(b1-4)]Glc6S
# Method in brief: as §1
# [7] = molecular target: Fuc(a1-3)[Gal(b1-4)]GlcNAc
# Method in brief: as §1
# [8] = molecular target: Fuc(a1-3)[Gal(b1-4)]GlcNAc(b1-2)Man(a1-3)[Fuc(a1-3)[Gal(b1-4)]GlcNAc(b1-2)Man(a1-6)]Man(b1-4)GlcNAc(b1-4)GlcNAc
# Method in brief: as §1
# [9] = molecular target: Fuc(a1-3)[Gal(b1-4)]GlcNAc(b1-2)Man(a1-6)[Gal(b1-4)GlcNAc(b1-2)Man(a1-3)]Man(b1-4)GlcNAc(b1-4)GlcNAc
# Method in brief: as §1
# [10] = molecular target: Fuc(a1-3)[Gal(b1-4)]GlcNAc(b1-3)Gal(b1-3)[Fuc(a1-4)]GlcNAc
# Method in brief: as §1
# [11] = molecular target: Fuc(a1-3)[Gal(b1-4)]GlcNAc(b1-3)GalNAc
# Method in brief: as §1
# [12] = molecular target: Fuc(a1-3)[Gal(b1-4)]GlcNAc(b1-4)Gal(b1-4)[Fuc(a1-3)]GlcNAc
# Method in brief: as §1
# [13] = molecular target: Fuc(a1-3)[Gal(b1-4)]GlcNAc(b1-4)Gal(b1-4)[Fuc(a1-3)]GlcNAc(b1-4)Gal(b1-4)[Fuc(a1-3)]GlcNAc
# Method in brief: as §1
# [14] = molecular target: Fuc(a1-3)[Gal(b1-4)]GlcNAc(b1-6)[Gal(b1-3)GlcNAc(b1-3)]Gal(b1-4)Glc
# Method in brief: as §1
# [15] = molecular target: Fuc(a1-3)[Gal(b1-4)]GlcNAc6S
# Method in brief: as §1
# [16] = molecular target: Fuc(a1-3)[Gal3S(b1-4)]Glc6S
# Method in brief: as §1
# [17] = molecular target: Fuc(a1-3)[Gal3S(b1-4)]GlcNAc
# Method in brief: as §1
# [18] = molecular target: Fuc(a1-3)[Gal3S(b1-4)]GlcNAc6S
# Method in brief: as §1
# [19] = molecular target: Fuc(a1-3)[GalNAc(b1-4)]GlcNAc
# Method in brief: as §1
# Fuc(a1-4)GlcNAc = molecular target: Fuc(a1-4)GlcNAc
# Method in brief: as §1
# Fuc(b1-3)GlcNAc = molecular target: Fuc(b1-3)GlcNAc
# Method in brief: as §1
# Gal(a1-2)Gal = molecular target: Gal(a1-2)Gal
# Method in brief: as §1
# Gal(a1-3)Gal = molecular target: Gal(a1-3)Gal
# Method in brief: as §1
# Gal(a1-3)Gal(b1-3)GlcNAc = molecular target: Gal(a1-3)Gal(b1-3)GlcNAc
# Method in brief: as §1
# [20] = molecular target: Gal(a1-3)Gal(b1-3)GlcNAc(b1-2)Man(a1-3)[Gal(a1-3)Gal(b1-3)GlcNAc(b1-2)Man(a1-6)]Man(b1-4)GlcNAc(b1-4)GlcNAc
# Method in brief: as §1
# [21] = molecular target: Gal(a1-3)Gal(b1-3)[Fuc(a1-4)]GlcNAc(b1-2)Man(a1-3)[Gal(a1-3)Gal(b1-3)[Fuc(a1-4)]GlcNAc(b1-2)Man(a1-6)]Man(b1-4)GlcNAc(b1-4)GlcNAc
# Method in brief: as §1
# Gal(a1-3)Gal(b1-4)Glc = molecular target: Gal(a1-3)Gal(b1-4)Glc
# Method in brief: as §1
# Gal(a1-3)Gal(b1-4)GlcNAc = molecular target: Gal(a1-3)Gal(b1-4)GlcNAc
# Method in brief: as §1
# [22] = molecular target: Gal(a1-3)Gal(b1-4)GlcNAc(b1-3)GalNAc
# Method in brief: as §1
# [23] = molecular target: Gal(a1-3)Gal(b1-4)[Fuc(a1-3)]GlcNAc
# Method in brief: as §1
# [24] = molecular target: Gal(a1-3)Gal(b1-4)[Fuc(a1-3)]GlcNAc(b1-2)Man(a1-3)[Gal(a1-3)Gal(b1-4)[Fuc(a1-3)]GlcNAc(b1-2)Man(a1-6)]Man(b1-4)GlcNAc(b1-4)GlcNAc
# Method in brief: as §1
# Gal(a1-3)GalNAc = molecular target: Gal(a1-3)GalNAc
# Method in brief: as §1
# [25] = molecular target: Gal(a1-3)[Gal(a1-4)]Gal(b1-4)GlcNAc
# Method in brief: as §1
# [26] = molecular target: Gal(a1-4)Gal(b1-3)GlcNAc(b1-2)Man(a1-3)[Gal(a1-4)Gal(b1-3)GlcNAc(b1-2)Man(a1-6)]Man(b1-4)GlcNAc(b1-4)GlcNAc
# Method in brief: as §1
# Gal(a1-4)Gal(b1-4)Glc = molecular target: Gal(a1-4)Gal(b1-4)Glc
# Method in brief: as §1
# Gal(a1-4)Gal(b1-4)GlcNAc = molecular target: Gal(a1-4)Gal(b1-4)GlcNAc
# Method in brief: as §1
# [27] = molecular target: Gal(a1-4)Gal(b1-4)GlcNAc(b1-2)Man(a1-3)[Gal(a1-4)Gal(b1-4)GlcNAc(b1-2)Man(a1-6)]Man(b1-4)GlcNAc(b1-4)GlcNAc
# Method in brief: as §1
# [28] = molecular target: Gal(a1-4)Gal(b1-4)GlcNAc(b1-3)Gal(b1-4)Glc
# Method in brief: as §1
# Gal(a1-4)GlcNAc = molecular target: Gal(a1-4)GlcNAc
# Method in brief: as §1
# Gal(a1-6)Glc = molecular target: Gal(a1-6)Glc
# Method in brief: as §1
# Gal(b1-2)Gal = molecular target: Gal(b1-2)Gal
# Method in brief: as §1
# Gal(b1-3)Gal = molecular target: Gal(b1-3)Gal
# Method in brief: as §1
# Gal(b1-3)Gal(b1-4)GlcNAc = molecular target: Gal(b1-3)Gal(b1-4)GlcNAc
# Method in brief: as §1
# [29] = molecular target: Gal(b1-3)Gal(b1-4)GlcNAc(b1-2)Man(a1-3)[Gal(b1-3)Gal(b1-4)GlcNAc(b1-2)Man(a1-6)]Man(b1-4)GlcNAc(b1-4)GlcNAc
# Method in brief: as §1
binder,measurement,setting,value
B1,glycan array binding signal (z-score),[1],-0.371
same,glycan array binding signal (z-score),[2],-0.14
same,glycan array binding signal (z-score),[3],-0.227
same,glycan array binding signal (z-score),[4],0.938
same,glycan array binding signal (z-score),[5],-0.199
same,glycan array binding signal (z-score),Fuc(a1-3)GlcNAc,0.419
same,glycan array binding signal (z-score),[6],-0.224
same,glycan array binding signal (z-score),[7],-0.288
same,glycan array binding signal (z-score),[8],0.916
same,glycan array binding signal (z-score),[9],5.4
same,glycan array binding signal (z-score),[10],-0.103
same,glycan array binding signal (z-score),[11],0.293
same,glycan array binding signal (z-score),[12],-0.036
same,glycan array binding signal (z-score),[13],-0.226
same,glycan array binding signal (z-score),[14],0.022
same,glycan array binding signal (z-score),[15],0.036
same,glycan array binding signal (z-score),[16],0.712
same,glycan array binding signal (z-score),[17],-0.043
same,glycan array binding signal (z-score),[18],0.843
same,glycan array binding signal (z-score),[19],-0.335
same,glycan array binding signal (z-score),Fuc(a1-4)GlcNAc,-0.457
same,glycan array binding signal (z-score),Fuc(b1-3)GlcNAc,-0.396
same,glycan array binding signal (z-score),Gal(a1-2)Gal,-0.433
same,glycan array binding signal (z-score),Gal(a1-3)Gal,-0.01
same,glycan array binding signal (z-score),Gal(a1-3)Gal(b1-3)GlcNAc,-0.143
same,glycan array binding signal (z-score),[20],4.69
same,glycan array binding signal (z-score),[21],-0.19
same,glycan array binding signal (z-score),Gal(a1-3)Gal(b1-4)Glc,-0.487
same,glycan array binding signal (z-score),Gal(a1-3)Gal(b1-4)GlcNAc,-0.145
same,glycan array binding signal (z-score),[22],-0.421
same,glycan array binding signal (z-score),[23],0.004
same,glycan array binding signal (z-score),[24],0.526
same,glycan array binding signal (z-score),Gal(a1-3)GalNAc,-0.251
same,glycan array binding signal (z-score),[25],-0.526
same,glycan array binding signal (z-score),[26],0.054
same,glycan array binding signal (z-score),Gal(a1-4)Gal(b1-4)Glc,-0.217
same,glycan array binding signal (z-score),Gal(a1-4)Gal(b1-4)GlcNAc,-0.248
same,glycan array binding signal (z-score),[27],3.26
same,glycan array binding signal (z-score),[28],0.635
same,glycan array binding signal (z-score),Gal(a1-4)GlcNAc,-0.215
same,glycan array binding signal (z-score),Gal(a1-6)Glc,-0.226
same,glycan array binding signal (z-score),Gal(b1-2)Gal,-0.483
same,glycan array binding signal (z-score),Gal(b1-3)Gal,-0.357
same,glycan array binding signal (z-score),Gal(b1-3)Gal(b1-4)GlcNAc,-0.566
same,glycan array binding signal (z-score),[29],0.477
